# Test results from the supplement of paper PMC12217912.
# The other results are listed elsewhere or left out. The full chains were built here from the parent and the listed change. Inactive controls read about 0.05.
# B1: TEV protease; numbered along this chain (parent)
# chain: MGESLFKGPRDYNPISSSICHLTNESDGHTTSLYGIGFGPFIITNKHLFRRNNGTLVVQSLHGVFKVKDTTTLQQHLVDGRDMIIIRMPKDFPPFPQKLKFREPQREERICLVTTNFQTKSMSSMVSDTSCTFPSGDGIFWKHWIQTKDGQCGSPLVSTRDGFIVGIHSASNFTNTNNYFTSVPKNFMELLTNQEAQQWVSGWRLNADSVLWGGHKVFMVKPEEPFQPVKEATQL
# Variants of: B1
# Experiment: raw area under fraction-flipped curve 0-4 h after induction (AUC4h, not background-subtracted), DNA-recorder readout of cleavage of the substrate (dimensionless); higher = more cleavage of the substrate by the protease variant
# Details: temperature: 34 °C; time window: 0-4 h after rhamnose induction
# 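Further: Bxb1 expression induced with 0.2% (w/v) L-rhamnose at OD600 near 0.5, cultures sampled hourly, flipped fraction per protease–substrate barcode pair counted by paired-end Illumina sequencing.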
Variant,area with substrate ECLYFQS,area with substrate EELYFQS,area with substrate EKLYFQS,area with substrate EQLYFQS,area with substrate ERLYFQS,area with substrate ESLYFQS,area with substrate EVLYFQS,area with substrate EYLYFQS,area with substrate EILYFQS,area with substrate EPLYFQS
W199S,0.0543,0.0691,0.0606,0.067,0.079,0.0609,0.0506,0.0575,,
S201C,0.119,0.105,,,,0.131,0.12,,0.112,0.0508
S201E,0.102,0.109,,,,,0.0928,,0.0811,
G202W,0.0631,,,,0.0552,0.06,0.0706,,,0.0613
W203S,0.0594,0.0683,0.0661,0.0655,0.0598,0.0606,0.0559,0.0671,0.0584,
R204P,0.0651,0.0694,0.063,,,,0.0608,,,
N206C,0.139,,0.104,0.106,0.0997,0.102,,0.0968,0.0955,0.105
S209A,0.0986,,,,,,,,0.102,
S209G,0.1,,,,0.0737,0.0749,0.0897,,0.11,
S209H,0.103,0.146,,,0.104,0.102,,,,
S209Y,0.117,,,,,0.115,,0.17,,0.168
V210P,0.0662,,,0.0647,0.0496,0.0775,0.0619,0.0525,,0.0759
L211I,0.1,,,,,0.1,0.0795,,,
L211N,0.138,0.181,,,,0.107,,,0.101,
G213C,0.0748,,0.066,,0.0451,0.0609,0.0592,,0.0657,
G213T,0.0636,0.0688,0.0601,,,0.0531,,,0.0655,0.0693
H215F,0.0833,,0.0668,0.109,,0.086,0.0872,0.0786,,0.0904
H215K,0.0763,,,,0.0789,0.0816,0.072,,0.0808,0.088
H215L,0.0883,0.0791,,0.0771,0.0869,0.0644,0.0942,0.0715,0.0752,
V217L,0.0997,,,,,0.0921,,,,

Variant,area with substrate ECLYFQS,area with substrate EELYFQS,area with substrate EKLYFQS,area with substrate EQLYFQS,area with substrate ERLYFQS,area with substrate ESLYFQS,area with substrate EVLYFQS,area with substrate EYLYFQS,area with substrate EILYFQS,area with substrate EPLYFQS
F218V,0.0932,0.129,0.108,0.0912,0.0943,0.11,0.113,0.1,,0.129
V220S,0.108,0.113,0.117,,,0.113,,,,
P222T,0.0889,0.138,0.11,0.0965,0.118,0.124,0.0768,,,0.117
Q227D,0.109,0.0988,0.112,0.149,0.122,0.109,0.11,,0.0704,0.118
P228R,0.132,,0.111,0.108,0.132,,,,0.0886,0.137
P228S,0.0637,0.0979,,,,0.137,,0.112,,
P228Y,0.116,0.11,0.0687,,0.104,0.0967,0.0831,0.102,0.0695,
V229D,0.129,,,,,0.099,0.0789,,,
T233Y,0.0786,0.0827,,,,,,,,
L235F,0.0936,0.171,,,0.0999,,0.079,,0.0804,0.111
L235Y,0.108,,,0.0897,0.0936,0.111,,,,0.148
G2A,,,,,,,,,0.114,
N45G,,0.097,0.0738,,0.0547,,0.0807,,0.0815,
R51N,,,,0.116,,0.124,,,,
F65Q,,,0.0777,0.123,0.0823,0.0916,0.104,,,
V67G,,,0.0634,,,0.0714,0.0453,0.0631,,0.0669
H76G,,,0.151,,0.0913,0.0774,,,0.103,
G80L,,,,0.0806,0.0936,0.121,0.122,,0.0937,
M83E,,0.0561,,,0.0379,0.0659,0.0642,0.0633,,0.0709
I84N,,0.0418,,,,,0.0608,0.0739,0.0948,

# Same assay, conditions: temperature: 34 °C; time window: 0-4 h after rhamnose induction
Variant,area with substrate ETLYFQS,area with substrate EWLYFQS,area with substrate EDLYFQS,area with substrate EHLYFQS,area with substrate EMLYFQS,area with substrate EFLYFQS,area with substrate EGLYFQS,area with substrate ELLYFQS
S201C,0.107,0.0929,,,,,,
S201E,0.107,0.112,0.108,0.0897,0.0897,,,
G202W,,,0.04,0.0535,,0.068,0.0685,
W203S,,,,0.0632,0.0614,,,0.0608
R204P,,,0.0918,,,0.062,,
N206C,,,0.125,0.134,0.129,,,0.102
S209A,,,,,0.118,,,
S209G,0.109,,0.122,0.103,0.0892,,,0.0681
S209H,0.103,,,,,,,0.117
S209Y,,,,,,,,0.0771
V210P,,0.0373,,0.07,0.0626,0.0861,0.0688,
L211I,,,0.14,,0.101,,,
L211N,,0.125,0.133,,0.129,,0.121,0.151
G213C,0.0508,0.0594,,0.0756,0.0753,,0.0627,0.0702
G213T,0.0599,0.0538,0.0722,0.0482,,0.0375,,0.0718
H215F,,,0.0965,0.0958,,,,
H215K,,,0.08,,0.0718,,,0.074
H215L,,,0.0893,0.0741,,,,0.0746
V217L,,,0.0824,,,0.112,,

Variant,area with substrate ETLYFQS,area with substrate EWLYFQS,area with substrate EDLYFQS,area with substrate EHLYFQS,area with substrate EMLYFQS,area with substrate EFLYFQS,area with substrate EGLYFQS,area with substrate ELLYFQS
F218V,0.129,0.116,0.117,0.103,,0.0979,0.0677,
V220S,0.124,,0.165,,0.118,,0.0921,
Q227D,,0.111,0.0985,,,,,0.101
P228R,,,,,0.121,0.0964,0.114,
P228S,0.124,,,,0.115,0.107,0.104,
P228Y,0.106,,,0.107,,,,
V229D,,,,0.0797,0.0844,,,
T233Y,,,0.0991,,0.113,,,
L235Y,,,,0.113,,,,
G2A,0.159,0.107,0.135,,,,,0.123
N45G,,,0.133,,0.107,,0.071,
R51N,,,0.19,,,,0.104,
F65Q,,,0.102,,,,,
V67G,0.0425,0.0544,0.0737,0.0538,,,0.0487,0.0608
H76G,,0.133,0.127,,0.103,,0.109,
G80L,,,0.106,,,0.0835,0.0988,
M83E,,,0.077,,0.0539,,,
I84N,,,0.0613,,,,,
